# The other results are listed elsewhere or left out.
# Biological target: no compound (DMSO)
# Experiment: log2 fold change of degron read counts, EGFP-low vs EGFP+ sorted cells; higher = lower degron-EGFP level without compound (poor expression or instability)
# Conditions: compound: DMSO control; 18 h
# 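Also: jurkat cells carrying a lentiviral library of mutant zinc finger degrons fused to EGFP plus mCherry, mCherry+ cells FACS sorted, degron abundance counted by next-generation sequencing.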
row,Sequence,log2 fold change of degron read counts
1,FRCDICGARFTQKGNLLRHIKL,-1.36
2,LQCEICGFSCTQKGNLLRHIKL,-0.625
3,FMCPICGAQFTQKGNLLRHIKL,-0.243
4,FKCDVCGAPFTQKGNLLRHIKL,-1.2
5,FVCNQCGRSFTQKGNLLRHIKL,-1.06
6,FSCEQCGAPFTQKGNLLRHIKL,-1.55
7,LWCPICGFACTQKGNLLRHIKL,2.42
8,FGCDVCGAFFTQKGNLLRHIKL,0.0157
9,FKCPICGHIFTQKGNLLRHIKL,-0.846
10,FSCPICGRTFTQKGNLLRHIKL,-0.747
11,FDCPICGALFTQKGNLLRHIKL,-0.436
12,FMCDQCGAIFTQKGNLLRHIKL,-0.622
13,FNCPQCGASFTQKGNLLRHIKL,-1.49
14,FACEICGHDFTQKGNLLRHIKL,-1.24
15,FTCEVCGAEFTQKGNLLRHIKL,-2.35
16,FTCSVCGHAFTQKGNLLRHIKL,-0.659
17,FLCEICGHLFTQKGNLLRHIKL,-1.66
18,FQCPVCGAQFTQKGNLLRHIKL,-0.176
19,FRCNQCGRKFTQKGNLLRHIKL,-0.704
20,FDCNICGAPFTQKGNLLRHIKL,-0.239
21,FDCNQCGRPFTQKGNLLRHIKL,0.558
22,FGCPVCGANFTQKGNLLRHIKL,-0.577
23,FMCEICGRQFTQKGNLLRHIKL,-1.23
24,FACDQCGAHFTQKGNLLRHIKL,-1.88
25,FHCNVCGASFTQKGNLLRHIKL,-1.32

row,Sequence,log2 fold change of degron read counts
1,FHCEICGAPFTQKGNLLRHIKL,-0.707
2,LFCPICGFHCTQKGNLLRHIKL,1.57
3,FGCEICGHQFTQKGNLLRHIKL,-0.241
4,FHCEICGHYFTQKGNLLRHIKL,-1.09
5,FQCPQCGAVFTQKGNLLRHIKL,-0.609
6,FECPICGRIFTQKGNLLRHIKL,-0.403
7,FGCDQCGAHFTQKGNLLRHIKL,-0.667
8,FKCPICGAMFTQKGNLLRHIKL,-0.575
9,FKCNQCGHRFTQKGNLLRHIKL,-0.202
10,LICPICGFDCTQKGNLLRHIKL,0.648
11,FNCNICGAWFTQKGNLLRHIKL,0.675
12,FYCPQCGADFTQKGNLLRHIKL,-1.35
13,FGCEICGRPFTQKGNLLRHIKL,-0.454
14,LKCEICGFICTQKGNLLRHIKL,0.359
15,FVCNQCGHGFTQKGNLLRHIKL,-1.24
16,FFCEICGARFTQKGNLLRHIKL,-0.886
17,FCCEICGHPFTQKGNLLRHIKL,-0.437
18,FDCDVCGAYFTQKGNLLRHIKL,0.497
19,FHCEICGRAFTQKGNLLRHIKL,-1.27
20,FFCNQCGACFTQKGNLLRHIKL,0.345
21,FECNQCGRYFTQKGNLLRHIKL,0.102
22,FYCDVCGALFTQKGNLLRHIKL,-0.209
23,FACNICGADFTQKGNLLRHIKL,-2.57
24,FWCEICGRYFTQKGNLLRHIKL,1.06
25,LCCEICGFDCTQKGNLLRHIKL,-0.487

# Reference: the supplement of paper PMC12645437, “Orthogonal IMiD-Degron Pairs Induce Selective Protein Degradation in Cells” (ACS Chemical Biology, 2025)
